PubChem BioAssay AID1347120 (National Center for Advancing Translational Sciences (NCATS), 2019)
In all, about 390,000 compounds went through this assay and about 930 (0.24%) were called active. The inconclusive results got no clear call from the source; some entries with a clear call stand among them for comparison. Calls follow the shape of the dose curve; as a rule, active = well fitted activation curve with a large enough effect; inconclusive = small, poorly fitted or top-dose-only effect; inactive = no such curve, though single readings can be large or run the other way. Where the call is inconclusive, the potency comes from a doubtful curve fit.

Assay: qHTS for Suppressors of FUS Proteinopathy: Primary screen using FUS-linked yeast assay; also: nearly all actives have a fitted effect of over 55% in size;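 as to growth rescue (activation): plate controls were DMSO vehicle for no effect and reference control for full effect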
Settings: S. cerevisiae FUS-expressing, OD600, 24 h; Potency: growth rescue; growth rescue (activation): at 76.6 µM (top of the series)
Outline: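 Read-out: OD at 600 nm after 24hr at 30C, reporting rescue of FUS-induced yeast toxicity. Cells at OD 0.005 in galactose (2%) minimal medium; compounds tested in a dilution series; CP55940 titration from 92uM final as control.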
Potency is read from the fitted curve at half-maximal effect; tags tell the direction and shape of the fitted curve.

Q: With `Cc1ccc(Cl)c(NC(=O)COC(=O)c2nn(-c3ccccc3)cc2O)c1Cl` as the compound, how does the Potency read?
A: The Potency was inconclusive: 17.8 µM [activator, partial curve, poor fit].

Q: With `CC(C)=C[C@@H]1C[C@H](C)[C@H]2CC[C@H](C)c3c(O[C@@H]4O[C@@H](C)[C@@H](O)[C@@H](O)[C@@H]4O)c(O)c(C)c1c32` as the compound, how does the Potency read?
A: The Potency was inconclusive: 28.2 µM [activator, single point].

Q: With `CCn1c(-c2cc(-c3cc(OC)ccc3OC)nc3ccccc23)n[nH]c1=S` as the compound, how does the “growth rescue (activation)” value read?
A: Its value is inactive: 29.1%.

Q: With `Clc1ccc(OCc2nc(-c3ccc(-n4cccc4)cc3)no2)cc1` as the compound, how does the Potency read?
A: Its Potency is inconclusive: 50.1 µM [activator, single point].

Q: Which “growth rescue (activation)” value does the source give for `Cc1ccc(Cl)cc1NC(=O)CCCn1c(=O)c2cccn2c2ccccc21` here?
A: Its value is inactive: -2.54%.

Q: Which “growth rescue (activation)” value does the source give for `CC1=CC2=NC(=O)/C(=C\c3cccn3CCOc3cc(C)cc(C)c3)C(=N)N2O1` here?
A: Its value is inactive: 21.2%.

Q: With `Cc1ccc(S(=O)(=O)N2CCN(C(=O)COC(=O)COc3cccc4c3OC(C)(C)C4)CC2)cc1` as the compound, how does the Potency read?
A: Its Potency is inconclusive: 35.5 µM [activator, single point].

Q: For `Cc1ccc(C(=O)N/N=C\c2ccc(-c3ccc(Cl)c(Cl)c3)o2)cn1`, which Potency is on record?
A: The Potency was inconclusive: 56.2 µM [activator, partial curve, poor fit].

Q: For `COc1ccc(C(=O)/C=C/c2cccc(OCc3ccccc3)c2)cc1CSCC(=O)O`, which Potency is on record?
A: The Potency was inconclusive: 50.1 µM [activator, single point].

Q: Which “growth rescue (activation)” value does the source give for `CSCC(=O)Nc1nc(-c2ccc3c(c2)OCCO3)cs1` here?
A: Its value is inactive: -18.2%.

Q: For `O=C(COc1ccccc1C(=O)O)Nc1ccc(SC(F)F)cc1`, which “growth rescue (activation)” value is on record?
A: Its value is inactive: 2.41%.

Q: Which Potency does the source give for `COc1ccccc1NC(=O)N(Cc1ccco1)Cc1cc2cccc(C)c2[nH]c1=O` here?
A: Its Potency is inconclusive: 35.5 µM [activator, single point].

Q: Which Potency does the source give for `Cc1nc2cc(C(=O)OCC(=O)NC34CC5CC(CC(C5)C3)C4)ccc2n1-c1ccccc1` here?
A: The Potency was inconclusive: 35.5 µM [activator, partial curve, poor fit].

Q: Which Potency does the source give for `Cc1ccc(C)c(N2CCN(C(=O)c3ccc(N4CCOCC4)c([N+](=O)[O-])c3)CC2)c1` here?
A: Its Potency is inconclusive: 25.1 µM [activator, single point].

Q: Which Potency does the source give for `CCc1nc2c(OCc3cc(Cl)cc(Cl)c3)cccn2c1N(C=O)Cc1ccc(OC)cc1` here?
A: Its Potency is inconclusive: 25.1 µM [activator, partial curve, poor fit].

Q: With `O=C(OCC(=O)N1CCN(S(=O)(=O)c2ccc(Cl)cc2)CC1)c1cccc(OC(F)F)c1` as the compound, how does the Potency read?
A: Its Potency is inconclusive: 50.1 µM [activator, single point].

Q: For `CC(C)=CCC[C@H](C)C[C@@H]1Cc2[nH][nH]c(=O)c2[C@H](c2ccc(F)cc2)O1`, which Potency is on record?
A: Its Potency is inconclusive: 35.5 µM [activator, single point].
